Test results: US20260176259A1, “NITROGEN-CONTAINING HETEROCYCLIC COMPOUND” (Kyoto University, priority 2022, published 2026)
The name of at least one read-out is uncertain.

What follows are molecules tested on GLA splicing reporter vector (GLA splicing: exon 4+exon 5 vs exon 4+pseudoexon+exon 5) (assay: GLA splicing reporter assay (GFP/RFP fluorescence ratio) in transfected HeLa cells). Settings: 10 μM evaluation compound, 0.1% DMSO, HeLa cell line, 16 hours after addition; GFP signal/RFP signal ratio, with ratio of 10 μM positive control 2-chloro-6-(2-furylmethyl)purine as 1.
Assay type: cell-based
Molecule `CC1(COc2cccc3c(NCc4ccco4)nc(Cl)nc23)CCC(=O)N1` (stereo not drawn) [Example 81] has a GLA_Signal_REC_10_2 of 2.55. Molecule `CC1(COc2cccc3c(NCc4ccco4)nc(Cl)nc23)COC(=O)N1` (stereo not drawn) [Example 82] has a GLA_Signal_REC_10_2 of 2.01. For `CN1CC(COc2cccc3c(NCc4ccco4)nc(Cl)nc23)OC1=O` (stereo not drawn) [Example 83], the GLA_Signal_REC_10_2 was 6.67. `O=C1NCC(COc2cccc3c(NCc4ccccc4)nc(Cl)nc23)O1` (stereo not drawn) [Example 84] showed a GLA_Signal_REC_10_2 of 3.39. In the case of `O=C1CCC(COc2cccc3c(NCc4ccco4)cc(Cl)nc23)N1` (stereo not drawn) [Example 85], the GLA_Signal_REC_10_2 is reported as 4.6. For `O=C1OC(COc2cccc3c(NCc4ccco4)cc(Cl)nc23)CN1CCO` (stereo not drawn) [Example 87], the GLA_Signal_REC_10_2 was 3.93. Work on `O=C1OC(COc2cccc3c(NCc4ccco4)cc(Cl)nc23)CN1CCF` (stereo not drawn) [Example 88] yielded a GLA_Signal_REC_10_2 of 3.44. For `CC(=O)N1CC(COc2cccc3c(NCc4ccco4)cc(Cl)nc23)C1` [Example 89], the GLA_Signal_REC_10_2 was 2.3. Work on `O=C1CC(COc2cccc3c(NCc4ccco4)cc(Cl)nc23)CN1` (stereo not drawn) [Example 90] yielded a GLA_Signal_REC_10_2 of 2.05. `CS(=O)(=O)N1CC(COc2cccc3c(NCc4ccco4)cc(Cl)nc23)C1` [Example 91] showed a GLA_Signal_REC_10_2 of 1.96. Molecule `C[C@H]1C[C@H](COc2cccc3c(NCc4ccco4)cc(Cl)nc23)NC1=O` [Example 92] has a GLA_Signal_REC_10_2 of 1.8. `CS(=O)(=O)N1CCC(COc2cccc3c(NCc4ccco4)cc(Cl)nc23)C1` (stereo not drawn) [Example 93] gave a GLA_Signal_REC_10_2 of 1.71. In the case of `CC(=O)N1CCC(COc2cccc3c(NCc4ccco4)cc(Cl)nc23)C1` (stereo not drawn) [Example 94], the GLA_Signal_REC_10_2 is reported as 3.01. `O=C1NC[C@H](COc2cccc3c(NCc4ccco4)cc(Cl)nc23)O1` [Example 95] was tested, and the GLA_Signal_REC_10_2 was 9.52. `O=C1NC[C@@H](COc2cccc3c(NCc4ccco4)cc(Cl)nc23)O1` [Example 96] showed a GLA_Signal_REC_10_2 of 5.93. `O=C1CC[C@H](COc2cccc3c(NCc4ccco4)cc(Cl)nc23)N1` [Example 97] showed a GLA_Signal_REC_10_2 of 8.37. Molecule `O=C1CC[C@@H](COc2cccc3c(NCc4ccco4)cc(Cl)nc23)N1` [Example 98] has a GLA_Signal_REC_10_2 of 7.68. `O=C1NCC(COc2cccc3c(NCc4ccccc4)cc(Cl)nc23)O1` (stereo not drawn) [Example 99] gave a GLA_Signal_REC_10_2 of 5.93. `O=C1OC(COc2cccc3c(NCc4ccccc4)cc(Cl)nc23)CN1CCO` (stereo not drawn) [Example 100] gave a GLA_Signal_REC_10_2 of 4.41. Molecule `O=C1OC(COc2cccc3c(NCc4ccccc4)cc(Cl)nc23)CN1CCF` (stereo not drawn) [Example 101] has a GLA_Signal_REC_10_2 of 2.52. With `C[C@H]1C[C@H](COc2cccc3c(NCc4ccccc4)cc(Cl)nc23)NC1=O` [Example 102] the GLA_Signal_REC_10_2 was 2.05. `O=C1CC(COc2cccc3c(NCc4ccccc4)cc(Cl)nc23)CN1` (stereo not drawn) [Example 103] gave a GLA_Signal_REC_10_2 of 2.02. `Clc1cc(NCc2ccco2)c2nccc(OCC3COCCO3)c2n1` (stereo not drawn) [Example 104, 2-Chloro-8-(1,4-dioxan-2-ylmethoxy)-N-(furan-2-ylmethyl)-1,5-naphthyridin-4-amine] showed a GLA_Signal_REC_10_2 of 2.92. Molecule `O=C1NCC(COc2ccnc3c(NCc4ccco4)cc(Cl)nc23)O1` (stereo not drawn) [Example 105, 5-[({6-Chloro-8-[(furan-2-ylmethyl)amino]-1,5-naphthyridin-4-yl}oxy)methyl]-1,3-oxazolidin-2-one] has a GLA_Signal_REC_10_2 of 9.37. `CN1CC(COc2ccnc3c(NCc4ccco4)cc(Cl)nc23)OC1=O` (stereo not drawn) [Example 106, 5-[({6-Chloro-8-[(furan-2-ylmethyl)amino]-1,5-naphthyridin-4-yl}oxy)methyl]-3-methyl-1,3-oxazolidin-2-one] was tested, and the GLA_Signal_REC_10_2 was 4.75. `C[C@H]1C[C@H](COc2ccnc3c(NCc4ccco4)cc(Cl)nc23)NC1=O` [Example 107, (3S,5R)-5-[({6-Chloro-8-[(furan-2-ylmethyl)amino]-1,5-naphthyridin-4-yl}oxy)methyl]-3-methylpyrrolidin-2-one] was tested, and the GLA_Signal_REC_10_2 was 4.43. Molecule `O=C1OC(COc2ccnc3c(NCc4ccco4)cc(Cl)nc23)CN1CCO` (stereo not drawn) [Example 108, 5-[({6-Chloro-8-[(furan-2-ylmethyl)amino]-1,5-naphthyridin-4-yl}oxy)methyl]-3-(2-hydroxyethyl)-1,3-oxazolidin-2-one] has a GLA_Signal_REC_10_2 of 4.16. `O=C1OC(COc2ccnc3c(NCc4ccco4)cc(Cl)nc23)CN1CCF` (stereo not drawn) [Example 109, 5-[({6-Chloro-8-[(furan-2-ylmethyl)amino]-1,5-naphthyridin-4-yl}oxy)methyl]-3-(2-fluoroethyl)-1,3-oxazolidin-2-one] was tested, and the GLA_Signal_REC_10_2 was 3.79. In the case of `O=C1NCC(COc2ccnc3c(NCc4ccccc4)cc(Cl)nc23)O1` (stereo not drawn) [Example 110, 5-({[8-(Benzylamino)-6-chloro-1,5-naphthyridin-4-yl]oxy}methyl)-1,3-oxazolidin-2-one], the GLA_Signal_REC_10_2 is reported as 2.88. Molecule `CN1CC(COc2ccnc3c(NCc4ccccc4)cc(Cl)nc23)OC1=O` (stereo not drawn) [Example 111, 5-({[8-(Benzylamino)-6-chloro-1,5-naphthyridin-4-yl]oxy}methyl)-3-methyl-1,3-oxazolidin-2-one] has a GLA_Signal_REC_10_2 of 4.46. `C[C@H]1C[C@H](COc2ccnc3c(NCc4ccccc4)cc(Cl)nc23)NC1=O` [Example 112, (3S,5R)-5-({[8-(Benzylamino)-6-chloro-1,5-naphthyridin-4-yl]oxy}methyl)-3-methylpyrrolidin-2-one] showed a GLA_Signal_REC_10_2 of 2.53. With `O=C1OC(COc2ccnc3c(NCc4ccccc4)cc(Cl)nc23)CN1CCO` (stereo not drawn) [Example 113, 5-({[8-(Benzylamino)-6-chloro-1,5-naphthyridin-4-yl]oxy}methyl)-3-(2-hydroxyethyl)-1,3-oxazolidin-2-one] the GLA_Signal_REC_10_2 was 5.23. `O=C1OC(COc2ccnc3c(NCc4ccccc4)cc(Cl)nc23)CN1CCF` (stereo not drawn) [Example 114, 5-({[8-(Benzylamino)-6-chloro-1,5-naphthyridin-4-yl]oxy}methyl)-3-(2-fluoroethyl)-1,3-oxazolidin-2-one] showed a GLA_Signal_REC_10_2 of 3.12. Work on `CN1CC(COc2ccnc3c(NCc4ccccc4)nc(Cl)nc23)OC1=O` (stereo not drawn) [Example 115, 5-({[4-(Benzylamino)-2-chloropyrido[3,2-d]pyrimidin-8-yl]oxy}methyl)-3-methyl-1,3-oxazolidin-2-one] yielded a GLA_Signal_REC_10_2 of 1.34. Work on `COCC1C[C@H](COc2cccc3c(NCc4ccco4)nc(Cl)nc23)NC1=O` (stereo partly drawn) [Example 116, (5R)-5-[({2-Chloro-4-[(furan-2-ylmethyl)amino]quinazolin-8-yl}oxy)methyl]-3-(methoxymethyl)pyrrolidin-2-one] yielded a GLA_Signal_REC_10_2 of 4.12. Work on `O=C1NCCC1COc1cccc2c(NCc3ccco3)nc(Cl)nc12` (stereo not drawn) [Example 117, 3-[({2-Chloro-4-[(furan-2-ylmethyl)amino]quinazolin-8-yl}oxy)methyl]pyrrolidin-2-one] yielded a GLA_Signal_REC_10_2 of 2.3. `CN1CC(COc2cccc3c(NCc4ccco4)nc(Cl)nc23)NC1=O` (stereo not drawn) [Example 118] showed a GLA_Signal_REC_10_2 of 3.8. With `O=C1CCC(CCOc2cccc3c(NCc4ccco4)nc(Cl)nc23)N1` (stereo not drawn) [Example 119] the GLA_Signal_REC_10_2 was 1.45. For `CC1(C)OCC(COc2cccc3c(NCc4ccco4)nc(Cl)nc23)O1` (stereo not drawn) [Example 120], the GLA_Signal_REC_10_2 was 1.44. Work on `O[C@H]1CC[C@H](COc2cccc3c(NCc4ccco4)nc(Cl)nc23)CC1` [Example 121] yielded a GLA_Signal_REC_10_2 of 1.75. For `Clc1nc(NCc2ccco2)c2cccc(OCC3CC3)c2n1` [Example 123, 2-Chloro-8-(cyclopropylmethoxy)-N-(furan-2-ylmethyl)quinazolin-4-amine], the GLA_Signal_REC_10_2 was 2.28. Molecule `Clc1nc(NCc2ccco2)c2cccc(OCC3COC3)c2n1` [Example 124, 2-Chloro-N-(furan-2-ylmethyl)-8-(oxetan-3-ylmethoxy)quinazolin-4-amine] has a GLA_Signal_REC_10_2 of 1.49. `Clc1nc(NCc2ccco2)c2cccc(OCC3COCOC3)c2n1` [Example 125, 2-Chloro-8-(1,3-dioxan-5-ylmethoxy)-N-(furan-2-ylmethyl)quinazolin-4-amine] showed a GLA_Signal_REC_10_2 of 4.24. Molecule `Clc1nc(NCc2ccco2)c2cccc(OCC3CCC3)c2n1` [Example 126, 2-Chloro-8-(cyclobutylmethoxy)-N-(furan-2-ylmethyl)quinazolin-4-amine] has a GLA_Signal_REC_10_2 of 1.76. `Clc1nc(NCc2ccco2)c2cccc(OC[C@@H]3COCCO3)c2n1` [Example 127, 2-Chloro-8-[(2S)-1,4-dioxan-2-ylmethoxy]-N-(furan-2-ylmethyl)quinazolin-4-amine] was tested, and the GLA_Signal_REC_10_2 was 2.75. In the case of `Fc1ccc2c(NCc3ccco3)nc(Cl)nc2c1OC[C@@H]1COCCO1` [Example 128, 2-Chloro-8-[(2S)-1,4-dioxan-2-ylmethoxy]-7-fluoro-N-(furan-2-ylmethyl)quinazolin-4-amine], the GLA_Signal_REC_10_2 is reported as 1.66. `Clc1cc(NCc2ccco2)c2cccc(OCC3COC3)c2n1` [Example 129, 2-Chloro-N-(furan-2-ylmethyl)-8-(oxetan-3-ylmethoxy)quinolin-4-amine] gave a GLA_Signal_REC_10_2 of 2.67. For `FC1(F)CC1COc1cccc2c(NCc3ccco3)nc(Cl)nc12` (stereo not drawn) [Example 130], the GLA_Signal_REC_10_2 was 4.85. Molecule `FC1(F)CC(COc2cccc3c(NCc4ccco4)nc(Cl)nc23)C1` [Example 131] has a GLA_Signal_REC_10_2 of 2.29. For `CC1(COc2cccc3c(NCc4ccco4)nc(Cl)nc23)CC1` [Example 132], the GLA_Signal_REC_10_2 was 1.31. Work on `Clc1nc(NCc2ccco2)c2cccc(OCC3CCCCO3)c2n1` (stereo not drawn) [Example 133] yielded a GLA_Signal_REC_10_2 of 1.19. For `Clc1nc(NCc2ccco2)c2cccc(OCC3CCO3)c2n1` (stereo not drawn) [Example 134], the GLA_Signal_REC_10_2 was 1.18. Molecule `O=S1(=O)CC(CCOc2cccc3c(NCc4ccco4)nc(Cl)nc23)C1` [Example 135] has a GLA_Signal_REC_10_2 of 0.94. Molecule `Clc1nc(NCc2ccco2)c2cccc(OC[C@H]3COCCO3)c2n1` [Example 136] has a GLA_Signal_REC_10_2 of 3.83. Work on `CC1(COc2cccc3c(NCc4ccco4)nc(Cl)nc23)CNC(=O)O1` (stereo not drawn) [Example 137] yielded a GLA_Signal_REC_10_2 of 1.85. `Fc1ccc2c(NCc3ccco3)nc(Cl)nc2c1OC[C@H]1COCCO1` [Example 138] showed a GLA_Signal_REC_10_2 of 1.54. `Fc1ccc2c(NCc3ccco3)nc(Cl)nc2c1OCC1CC1` [Example 139] gave a GLA_Signal_REC_10_2 of 1.48. Work on `Fc1ccc2c(NCc3ccco3)nc(Cl)nc2c1OCC1CCC1` [Example 140] yielded a GLA_Signal_REC_10_2 of 1.41. `Fc1ccc2c(NCc3ccco3)nc(Cl)nc2c1OCC1COC1` [Example 141] was tested, and the GLA_Signal_REC_10_2 was 0.98. `Clc1cc(NCc2ccco2)c2cccc(OCC3CC3)c2n1` [Example 142] showed a GLA_Signal_REC_10_2 of 2.46.
